Results reported in paper PMC5540273 (PLoS ONE, 2017).
For some assays here: What follows is the remainder of the data, with few or none of the strong results. Only a part is listed here, and it is no random draw.

Legend:
Conditions in all cases: concentration: 1 μM,replicates: in singlicate; n = 1
ICK = tested on: ICK
IGF1R = tested on: IGF1R
IKK-alpha = tested on: T1, IKK-alpha
T1 construct: gene CHUK

IKK-beta = tested on: T2, IKK-beta
T2 construct: gene IKBKB

IKK-epsilon = tested on: T3, IKK-epsilon
T3 construct: gene IKBKE

INSRR = tested on: INSRR
INSR = tested on: INSR
IRAK1 = tested on: IRAK1
IRAK3 = tested on: IRAK3
IRAK4 = tested on: IRAK4
ITK = tested on: ITK
[1] = tested on: JAK1(JH1domain-catalytic)
[2] = tested on: JAK1(JH2domain-pseudokinase)
[3] = tested on: JAK2(JH1domain-catalytic)
[4] = tested on: JAK3(JH1domain-catalytic)
JNK1 = tested on: T4, JNK1
T4 construct: gene MAPK8

JNK2 = tested on: T5, JNK2
T5 construct: gene MAPK9

JNK3 = tested on: T6, JNK3
T6 construct: gene MAPK10

KIT-autoinhibited = tested on: KIT-autoinhibited
KIT = tested on: KIT
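Also: KINOMEscan kinase panel screen.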

| Compound | %Inh (ICK) [%] | %Inh (IGF1R) [%] | %Inh (IKK-alpha) [%] | %Inh (IKK-beta) [%] | %Inh (IKK-epsilon) [%] | %Inh (INSRR) [%] | %Inh (INSR) [%] | %Inh (IRAK1) [%] | %Inh (IRAK3) [%] | %Inh (IRAK4) [%] | %Inh (ITK) [%] | %Inh [1] [%] | %Inh [2] [%] | %Inh [3] [%] | %Inh [4] [%] | %Inh (JNK1) [%] | %Inh (JNK2) [%] | %Inh (JNK3) [%] | %Inh (KIT-autoinhibited) [%] | %Inh (KIT) [%] |
| --- | --- | --- | --- | --- | --- | --- | --- | --- | --- | --- | --- | --- | --- | --- | --- | --- | --- | --- | --- | --- |
| O=C1NC(=O)C(c2ccccc2Cl)=C1Nc1cccc(C(=O)O)c1 [SB-390526] | 11 | 17 | 99.4 | 0 | 11 | 1 | 0 | 22 | 21 | 7 | 8 | 0 | 0 | 0 | 75 | 0 | 5 | 0 | 0 | 17 |
| CS(=O)(=O)c1ccccc1-c1nc(-c2ccc(F)cc2)c(-c2ccncc2)[nH]1 [SB-213663] | 16 | 0 | 0 | 0 | 0 | 0 | 0 | 0 | 0 | 0 | 0 | 2 | 0 | 5 | 0 | 93.2 | 99.3 | 99.3 | 5 | 0 |
| O=C1NC(=O)C(c2ccc(Cl)cc2)=C1Nc1cccc(O)c1 [SB-333613] | 29 | 0 | 34 | 28 | 0 | 8 | 26 | 32 | 3 | 0 | 0 | 0 | 0 | 54 | 58 | 24 | 24 | 2 | 16 | 0 |
| O=C1NC(=O)C(c2ccccc2)=C1Nc1cc(Cl)c(O)c(Cl)c1 [SB-390530] | 47 | 6 | 0 | 0 | 0 | 19 | 0 | 0 | 0 | 0 | 15 | 0 | 0 | 1 | 86 | 49 | 32 | 37 | 5 | 2 |
| Cc1ccc(C)c(Oc2nccc(-c3c(-c4ccc(F)cc4)ncn3C3CCNCC3)n2)c1.O=C(O)C(F)(F)F.O=C(O)C(F)(F)F.O=C(O)C(F)(F)F [SB-284852] | 0 | 0 | 0 | 0 | 0 | 0 | 0 | 6 | 0 | 0 | 15 | 0 | 3 | 1 | 0 | 2 | 21 | 0 | 0 | 1 |
| O=C1NC(=O)C(c2ccc(Cl)cc2)=C1Nc1ccc(O)c(Cl)c1 [SB-405367] | 22 | 0 | 0 | 10 | 4 | 0 | 13 | 0 | 15 | 0 | 4 | 0 | 63 | 25 | 5 | 37 | 4 | 16 | 12 | 3 |
| O=C(O)c1ccc(-c2nc(-c3ccc(F)cc3)c(-c3ccncc3)[nH]2)cc1 [SB-202620] | 46 | 28 | 0 | 0 | 3 | 3 | 19 | 0 | 10 | 0 | 12 | 15 | 38 | 22 | 0 | 93.6 | 98.8 | 99.3 | 1 | 19 |
| COc1cccc(C2=C(Nc3ccc(SC)cc3)C(=O)NC2=O)c1 [SB-331032] | 0 | 0 | 20 | 0 | 0 | 0 | 30 | 11 | 12 | 0 | 4 | 0 | 0 | 47 | 66 | 25 | 32 | 10 | 13 | 0 |
| O=C1NC(=O)C(c2ccccc2Cl)=C1Nc1ccccc1 [SB-376715] | 22 | 0 | 0 | 0 | 31 | 0 | 0 | 12 | 21 | 15 | 0 | 0 | 0 | 0 | 69 | 7 | 30 | 37 | 0 | 0 |
| Cc1cc(C)cc(Oc2nccc(-c3c(-c4ccc(F)cc4)ncn3C3CCNCC3)n2)c1.O=C(O)C(F)(F)F.O=C(O)C(F)(F)F.O=C(O)C(F)(F)F [SB-284851] | 0 | 0 | 0 | 0 | 0 | 0 | 0 | 0 | 10 | 0 | 4 | 86 | 0 | 0 | 29 | 20 | 0 | 0 | 0 | 0 |
| CSc1ccc(NC2=C(c3cccc(Cl)c3)C(=O)NC2=O)cc1 [SB-341528] | 4 | 0 | 0 | 0 | 17 | 0 | 0 | 0 | 5 | 0 | 0 | 0 | 48 | 0 | 52 | 25 | 10 | 6 | 17 | 0 |
| O=C1NC(=O)C(c2ccc(Cl)cc2)=C1Nc1cccc(C(=O)O)c1 [SB-360737] | 0 | 1 | 44 | 41 | 0 | 0 | 10 | 48 | 0 | 46 | 13 | 5 | 0 | 13 | 0 | 24 | 12 | 5 | 0 | 0 |
| O=C1NC(=O)C(c2ccccc2)=C1Nc1ccc(Cl)c(C(=O)O)c1 [SB-390532] | 5 | 18 | 42 | 22 | 10 | 0 | 11 | 58 | 0 | 45 | 3 | 6 | 0 | 7 | 29 | 21 | 19 | 4 | 0 | 0 |
| O=C1NC(=O)c2c1c(-c1ccccc1)cc1[nH]c3ccc(O)cc3c21 | 33 | 0 | 56 | 36 | 22 | 21 | 3 | 20 | 31 | 0 | 0 | 4 | 57 | 82 | 99.2 | 23 | 16 | 9 | 26 | 43 |
| O=C1NC(=O)C(c2ccc(Cl)cc2)=C1Nc1ccccc1 [SB-317661] | 0 | 0 | 21 | 7 | 0 | 0 | 9 | 31 | 0 | 0 | 0 | 0 | 50 | 46 | 11 | 0 | 0 | 0 | 20 | 0 |
| COc1ccc(C2=C(Nc3cccc(Cl)c3)C(=O)NC2=O)cc1 [SB-326892] | 0 | 0 | 0 | 0 | 0 | 1 | 1 | 0 | 20 | 0 | 0 | 100 | 8 | 0 | 20 | 0 | 2 | 0 | 6 | 10 |
